# Measurements from article PMC12136788.
# The list shows a part of the results.
# T1: UNK ZnF1-3 (human, UniProt Q9C0B0 31-174)
# T1 sequence: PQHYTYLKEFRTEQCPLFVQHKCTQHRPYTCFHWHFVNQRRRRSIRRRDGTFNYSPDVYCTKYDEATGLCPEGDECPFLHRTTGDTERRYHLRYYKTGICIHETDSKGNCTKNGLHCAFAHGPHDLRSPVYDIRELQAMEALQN
# B1: chr11:86535762:86535763:-_ENSMUSG00000047126_ENSMUST00000103186|mus_mus|FALSE|FALSE (ssRNA)
# RNA: GGGAGUUCUACAGUCCGACGAUCUGCAAAGCACUGGAUGACUUUAUUAGGUACAUUGGCCCUGAGGUAAACACUCAGUGCUAAUGUUGGGUCCACAGAUUUAACGAGAUCACCCAGUUCUUCAGAACAUUCCAGCUUAUCUUCCAACAGAGGAUUGAGCAUCA
# B2: 3760353_3760473_1773_3pUTR_ENSMUSG00000028234_ENSMUST00000138502|mouse|control|control (ssRNA)
# RNA: GGGAGUUCUACAGUCCGACGAUCCUGUAGGAACAUUUAAAAAGUUCUAUGGUAAGCAUUUCCCUUUAUGGUCCUCCCCUUAGAAGCAGUUUCUUCUGGAACCUCUAUGGGACACUGUUGCCAGUUUAACUUUAAACACAAAAGCAACAGAGGAUUGAGCAUCA
# B3: chr5:121887652:121887653:+_ENSMUSG00000042719_ENSMUST00000042163|mus_mus|motif|central (ssRNA)
# RNA: GGGAGUUCUACAGUCCGACGAUCGAAGACCAGAUUCUCUAGGACUGCAGGCUGGGUCUUCACAUUGCCAUCUGUAACUUCGGAGAGGUCCCCUUUACAUGUGCUGAAGACACCUUUCAAUAGUUCUAGUAAAGAUGCAAGACUCAACAGAGGAUUGAGCAUCA
# B4: chr17:66335897:66335898:-_ENSMUSG00000034647_ENSMUST00000038116|mus_hu|FALSE|FALSE (ssRNA)
# RNA: GGGAGUUCUACAGUCCGACGAUCCUUCAAUUUAUGUUUUUUUAAUGUUUUACCUUCUUUAUCCAUUUUUUUCAGUGUGCAAUCUGAAUUUUCAAAUGUUGGACUAUGAUCUUCAUCCUUUAUUUUGGCAUUUGAUUUUUCACCCAACAGAGGAUUGAGCAUCA
# B5: chr15:96202663:96202664:+_ENSMUSG00000033237_ENSMUST00000096250|mus_mus|motif|central (ssRNA)
# RNA: GGGAGUUCUACAGUCCGACGAUCACUGCUUGUGGACGGUGACCCACCCAGAGUUAACACAGGUCCAUUAGAAACUCUUUCGGGUUGGUCACCUUUGGCAGUAUCUUGCUGAGUGGCACCCGAAGUCCCUUGUGGUUCUACUGGCAACAGAGGAUUGAGCAUCA
# B6: chr11:97371553:97371554:-_ENSMUSG00000038453_ENSMUST00000107596|mus_mus|FALSE|FALSE (ssRNA)
# RNA: GGGAGUUCUACAGUCCGACGAUCCACAAUCCCAUACAAAUUCCUUCCAGGACACACUCGCGCAGUAACCAAAUUGAAGAACUAGAACUACGCAAAGCCCACGGGGGCCUUGCCUGAGCUCGUGGGGCAGCCCCUGCAUGAAUACAACAGAGGAUUGAGCAUCA
# B7: chr16:94690093:94690094:+_ENSMUSG00000040785_ENSMUST00000117648|mus_hu|mus_mus_mus_hu_True|38_78 (ssRNA)
# RNA: GGGAGUUCUACAGUCCGACGAUCGGGCUGGGAUGACGGACACACAGCCUCGAUUCCGGUAAAAAAAAGUCUUAGUCGAUACUAAUUAAAAAGUGUUUUUAUAAUUGGAAAAUCAGAUUACAUCUAUAAAAGAUGAAAAGCAAACAACAGAGGAUUGAGCAUCA
# B8: chr15:25293464:25293465:-_ENSMUSG00000045763_ENSMUST00000058845|mus_mus|FALSE|FALSE (ssRNA)
# RNA: GGGAGUUCUACAGUCCGACGAUCAAAAAUAUCUGGAGAGGAAAAAUGGAGGGUUGGCAUUGAGAUACAUGUGGACAAGCUAAGUGGGCUCCGUCUGAAAGUUGGCAUUCAUCCACGAACGUUUAAAAAAAUACCAAAAAAAUUCAACAGAGGAUUGAGCAUCA
# B9: chr6:41757443:41757444:+_ENSG00000214736_ENST00000398881|hu_mus|hu_hu_hu_mus_False|18_88 (ssRNA)
# RNA: GGGAGUUCUACAGUCCGACGAUCGAACCGUGCAGAGGCAACAUCUCGGAAUUCUGCGGGGGAUGGGGGGGCAGUGGGGGGGGGUUCAGGCAAGGAGAGGGAGUCAACUUCAGCUGCUCAAACUUCAGGAUCUUGUGGUCACAGCAACAGAGGAUUGAGCAUCA
# B10: chr2:29769918:29769919:+_ENSMUSG00000026790_ENSMUST00000113756|mus_mus|FALSE|FALSE (ssRNA)
# RNA: GGGAGUUCUACAGUCCGACGAUCCUGCAAAUGCCCCCGCAUGGACUCCAUGGACUUGGAAAGCUCAGACGCUGUCUUUGCUUGAGCCUUUUCACAUUGUAUCUCCUGGAGGAGUUCUUCCACCUCCUUGUCCUUGUCUUGCAGCAACAGAGGAUUGAGCAUCA
# B11: chr10:112362727:112362728:-_ENSMUSG00000074748_ENSMUST00000099276|mus_hu|FALSE|FALSE (ssRNA)
# RNA: GGGAGUUCUACAGUCCGACGAUCGAUCCCAGCAUGCGAUAAUGCCAGGCAGUGGUCCCUGGGCAUGCGAUGGUGGGAACUAAUGUAUGGAAGAAAAAGCCACAAACCACAGAAAUUUUAAAGAACCCCCCCCUUCCCCCAUAACAACAGAGGAUUGAGCAUCA
# B12: chr5:134670393:134670394:-_ENSG00000113648_ENST00000304332|hu_mus|motif|central (ssRNA)
# RNA: GGGAGUUCUACAGUCCGACGAUCAGGGGAGGGACCGCUGCUCCGCUGCUCUGUGUUAAUCAGGACUUCAUUAGAGUGAAACGGUAAAAUCCUCUAGGUUGACUAAGUCAGACACGGUCUGGAAAGCAGUGCUUAACAAGGACGCAACAGAGGAUUGAGCAUCA
# B13: chr4:103720638:103720639:-_ENSG00000109332_ENST00000394803|hu_hu|FALSE|FALSE (ssRNA)
# RNA: GGGAGUUCUACAGUCCGACGAUCGAUCCGUGCAAUCUCUGGCACUAGGGGGUCAUCUGGGUUUGGAUCACAUAGCAGUGAACAAAUGGAUAAAAGAACUUUAGAAAUUGUUAAAGCAGGCGACCACUGUGAUCUUAGAAUAUCCAACAGAGGAUUGAGCAUCA
# B14: chr11:61589858:61589859:-_ENSMUSG00000004798_ENSMUST00000004920|mus_hu|FALSE|FALSE (ssRNA)
# RNA: GGGAGUUCUACAGUCCGACGAUCUUCAAGAAUAAUGCAUGCAGUUACAAAUGAGAGGUAGAAACACUGUAUUAAAGACCUAAAAAUACAAACGUCAUAUAAAUAAAUGUUCAAAUUAACUACUGGAAUUUCAUACAGAUAAAUCAACAGAGGAUUGAGCAUCA
# B15: 121499381_121518024_256_CDS_ENSMUSG00000028127_ENSMUST00000029770|mouse|control|control (ssRNA)
# RNA: GGGAGUUCUACAGUCCGACGAUCUGGCGGUUUUCCACUUUUCUUACCGUGCAGGCCGAGGGCGCGACGCCGCUUAUGGAGUAGGCAGAGCAGCAGGAACGCGGCCCCCGCCAGCGAGGUGUUCCGUGCCGUCAAGUACUUGCUCAACAGAGGAUUGAGCAUCA
# B16: chr1:39494447:39494448:+_ENSG00000168653_ENST00000372967|hu_mus|hu_hu_hu_mus_False|28_38 (ssRNA)
# RNA: GGGAGUUCUACAGUCCGACGAUCGCACCGAGCGGCGUUCUUAUAGGGCUGUUCUGCGCUUAGGAACAUAAAGUGCCGGUCCAGGCUGAUGCCCAGCCUUUUCUGGAUGUCCAAGAAAGGCAUGGCUCUGCAGUGCCCUUGUCACAACAGAGGAUUGAGCAUCA
# B17: 85028687_85029981_564_CDS_ENSMUSG00000018481_ENSMUST00000018625|mouse|control|control (ssRNA)
# RNA: GGGAGUUCUACAGUCCGACGAUCGAAGGAGUAGGCCAAGACGGAAGCUACCUUAACGCCAUGGUCCAUCAGAGCCUGAAAACAGUGGUGGAGCAAAUGUCUUUUAUCCAAAGCUCUCAAAACUUUAGCAAAAACUUCCAAUUCCAACAGAGGAUUGAGCAUCA
# B18: chr11:60965389:60965390:-_ENSMUSG00000042506_ENSMUST00000041683|mus_mus|motif|central (ssRNA)
# RNA: GGGAGUUCUACAGUCCGACGAUCCCCCUCAAAAUGACAAGGGAAAGAAAAGUGACAUAAAUGUCUUGGUAAUAAAACUCCGGACCACAGUACAAUCAUUGGAUUUUUUUUCCCUCACGAUUUUUUAUUUCAAAGCUAUAAUAACAACAGAGGAUUGAGCAUCA
# B19: chr16:16313726:16313727:-_ENSMUSG00000022789_ENSMUST00000023477|mus_hu|FALSE|FALSE (ssRNA)
# RNA: GGGAGUUCUACAGUCCGACGAUCUACAAUGACUCUAUGUGAGGAACUUGCCAACUCACAUCUUUCAAAGCCAGAUCAGCUUAUAUAGUACAUGCAUUAUAGUCAUAUGAAAUGUUGUCUUGGUGCUUUCUUCUUGGAGGACUACAACAGAGGAUUGAGCAUCA
# B20: chr8:24049560:24049561:+_ENSMUSG00000031540_ENSMUST00000044331|mus_mus|FALSE|FALSE (ssRNA)
# RNA: GGGAGUUCUACAGUCCGACGAUCGCUGUUGACAGAGCGGACUGACUGGCUAGGAUGAGACGGAAUGGAGGAUAUCGGGCUAUUAUGCUCUGAAGCAUGACAGUCUUCAACCAUUGACAUCUGGGGGUCCUCAUCAGUGUGGGUCAACAGAGGAUUGAGCAUCA
# B21: chr14:21319760:21319761:-_ENSMUSG00000021816_ENSMUST00000161445|mus_mus|FALSE|FALSE (ssRNA)
# RNA: GGGAGUUCUACAGUCCGACGAUCAGCCAGCAGCAAAUCACCCUGGUGGUUUUUAAAGCAACUGGAGUACUCACAAUAAACUAAAAUUUCUCAUAAUAUCUACGUAACCUAUACAUGUUGUACCUGUACAUCAUAGGUCUAUAUCAACAGAGGAUUGAGCAUCA
# B22: chr3:88113163:88113164:+_ENSMUSG00000001416_ENSMUST00000001452|mus_mus|motif|central (ssRNA)
# RNA: GGGAGUUCUACAGUCCGACGAUCCAGUGCAAUGUUGCAUGCCAAGGAGGACCACCGACUGAUGACUUUUGUAGUAAUAGAGCGGUUGAUGAUGCUCAACAUCAUCUCACGGUUAUUGACAUCAACAGGAGUACUGAUUUUCUUCAACAGAGGAUUGAGCAUCA
# Biological target: T1, UNK ZnF1-3
# Experiment: nsRBNS (natural sequence RNA bind-n-seq); RBNS binding buffer (assumed for nsRBNS): 25 mM Tris pH 7.5, 150 mM KCl, 3 mM MgCl2, 0.01% Triton X-100, 500 ug/ml BSA, 20 U/ml SUPERase-In, 4 C; UNK is unkempt and MSI1 is Musashi-1; names of the RNAs are library labels; protein concentration not given here; high values mean tight binding
row,Binder,binding signal [enrichment R]
1,B1,0.55
2,B2,0.821
3,B3,1.11
4,B4,0.218
5,B5,0.459
6,B6,1.09
7,B7,1.62
8,B8,2.72
9,B9,2.83
10,B10,0.532
11,B11,1.91
12,B12,1.01
13,B13,1.75
14,B14,1.64
15,B15,0.726
16,B16,0.743
17,B17,0.9
18,B18,1.16
19,B19,1.08
20,B20,1.13
21,B21,1.52
22,B22,0.875
